# Assay results published in PubChem BioAssay AID2147 (National Center for Advancing Translational Sciences (NCATS), 2009).
# Among all 230,000 compounds or so, about 3,600 (1.6%) were called active. The shares of active, inactive and inconclusive entries below differ from those in the screen. Calls come from the whole dose curve; as a rule, active = well fitted inhibition curve with a large enough effect (not every such curve was filed as active); inconclusive = small, poorly fitted or top-dose-only effect, or another doubt; inactive = no such curve, though single readings can be large or run the other way. Where the call is inconclusive, the potency comes from a doubtful curve fit.
# Target: Lysine-specific demethylase 4E (Homo sapiens) (UniProt B2RXH2)
# Chain of UniProt B2RXH2 (B2RXH2 whole entry, looked up, the tested form may be a part): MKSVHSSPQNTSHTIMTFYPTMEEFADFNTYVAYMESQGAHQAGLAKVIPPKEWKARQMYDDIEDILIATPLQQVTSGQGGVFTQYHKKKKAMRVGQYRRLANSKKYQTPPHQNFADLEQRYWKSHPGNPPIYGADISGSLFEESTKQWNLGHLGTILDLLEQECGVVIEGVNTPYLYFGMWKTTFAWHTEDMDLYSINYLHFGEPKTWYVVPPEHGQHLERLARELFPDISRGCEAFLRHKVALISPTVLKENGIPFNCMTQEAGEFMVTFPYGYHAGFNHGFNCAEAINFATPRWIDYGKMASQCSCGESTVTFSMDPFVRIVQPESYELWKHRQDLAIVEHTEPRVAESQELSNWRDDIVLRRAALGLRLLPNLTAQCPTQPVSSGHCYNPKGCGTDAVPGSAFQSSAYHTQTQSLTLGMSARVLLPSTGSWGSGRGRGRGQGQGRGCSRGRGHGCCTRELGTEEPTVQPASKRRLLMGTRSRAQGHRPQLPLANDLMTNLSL
# Assay: qHTS Assay for Inhibitors of Human Jumonji Domain Containing 2E (JMJD2E)
# Settings: JMJD2E catalytic domain, FDH-coupled NADH fluorescence (FDH is formaldehyde dehydrogenase); series mostly up to 57.1 µM; activity change, negative = inhibition: at the top concentration
# Note: nearly all actives have a fitted effect of over 50% in size.
# Potency is the fitted concentration of half-maximal effect; tags give direction and shape of the fitted curve.
# 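Throughout, for activity change, negative = inhibition: 0% = wells with enzyme and -100% = buffer wells without enzyme.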
SMILES,"activity change, negative = inhibition",Potency
Cc1nc2ncccn2c1-c1csc(NCc2ccco2)n1,inactive: 6.92%,
Fc1cccc(F)c1-n1c(CN2CCCCC2)csc1=S,inactive: -0.249%,
CCOC(=O)CCn1c(=O)c2c(nc(Br)n2Cc2ccccc2)n(C)c1=O,,"inconclusive: 39.8 µM [inhibitor, single point]"
C=CCc1c(OC(C)=O)c2ccccc2n(C)c1=O,,"inconclusive: 25.1 µM [inhibitor, partial curve]"
COCCn1c(SCC(=O)N2CCCCC2)nc2ccccc2c1=O,inactive: 3.5%,
CCc1ccccc1Nc1nc(N)nc(CSCC(=O)c2cc(C)n(C)c2C)n1,inactive: -7.23%,
Cc1cc(C)c2cc(CN(Cc3nnnn3Cc3ccc(F)cc3)C3CCCC3)c(=O)[nH]c2c1,,"inconclusive: 10 µM [inhibitor, partial curve]"
C[C@@H]1CN(C(=O)c2nc3ccc(Cl)cn3c2CN2CCc3sccc3C2)C[C@H](C)O1,,"inconclusive: 39.8 µM [inhibitor, single point]"
CCN(CC)S(=O)(=O)c1ccc(N2CCN(S(=O)(=O)c3ccc4c(c3)OCCO4)CC2)nc1,,"inconclusive: 28.2 µM [inhibitor, single point]"
CC1(C)Cc2c(C#N)c(N)sc(=S)c2CS1,,"inconclusive: 39.8 µM [inhibitor, single point]"
COc1ccc(NS(=O)(=O)c2cccc(C(=O)N/N=C/c3ccccn3)c2)cc1,,"inconclusive: 22.4 µM [inhibitor, single point]"
CC[C@@H]1Cc2cc(O)ccc2C2=C1c1ccc(O)cc1C[C@H]2CC,,"inconclusive: 28.2 µM [inhibitor, partial curve]"
Cc1ccc(CCNC(=O)C23C[C@H]4C[C@@H](C2)CC(n2nnc(C)n2)(C4)C3)cc1,inactive: 1.19%,
COc1ccc(-c2oc3ncnc(N)c3c2-c2ccccc2)cc1,,"inconclusive: 31.6 µM [inhibitor, partial curve]"
COc1ccc(-c2cc(-c3ccccc3)c(C#N)c(S(C)=O)n2)cc1 (stereo unspecified),,"inconclusive: 31.6 µM [inhibitor, partial curve]"
C=CCOC(=O)c1sc(NC(=O)c2ccco2)nc1C,,"inconclusive: 39.8 µM [inhibitor, single point]"
COc1ccc(-c2noc(Cc3ccccc3OC)n2)cc1,,"inconclusive: 39.8 µM [inhibitor, single point]"
CCOC(=O)c1ccccc1NC1c2ccccc2C(=O)N1c1cc(C)ccn1 (stereo unspecified),,"inconclusive: 35.5 µM [inhibitor, single point]"
Cc1sc2nc3c(SC(C)C(=O)O)cc(C(=O)c4ccccc4O)cn3c(=O)c2c1C (stereo unspecified),inactive: 3.58%,
O=C(COC(=O)c1ccccc1NCc1ccco1)Nc1ccc2c(c1)OCO2,,"inconclusive: 22.4 µM [inhibitor, partial curve]"
CCN1CCCC1CN(Cc1cc2c(C)cc(C)cc2[nH]c1=O)C(=O)NC1CCCCC1 (stereo unspecified),,"inconclusive: 31.6 µM [inhibitor, partial curve]"
COc1ccc(-n2c(=S)[nH]c3sc(-c4ccccc4)cc3c2=O)c(OC)c1,inactive: -1.78%,
CCCCOc1ccc(-c2cc(C(F)(F)F)c(C#N)c(SCC(=O)O)n2)cc1,,"inconclusive: 10 µM [inhibitor, partial curve]"

SMILES,"activity change, negative = inhibition",Potency
CCCCn1c(=O)[nH]c(=O)c2c(C(=O)OCC)cc(-c3cccs3)nc21,,"inconclusive: 25.1 µM [inhibitor, partial curve]"
Cc1c(NC(=O)c2cc3c(s2)CCCC3)c(=O)n(-c2ccccc2)n1C,inactive: 0.982%,
Cc1cc(C)n2cc(CSc3ncccc3C(=O)O)nc2n1,,"inconclusive: 28.2 µM [inhibitor, partial curve]"
CC(C)c1nnc(SCC(=O)N2CCc3ccccc32)n1N,inactive: 7.98%,
COc1cc(N2CCCC2)c(OC)cc1/C=C(/C#N)c1ccc(F)cc1,inactive: 2.64%,
C=C(C)CSc1nc2ccccc2[nH]1,inactive: 2.19%,
COc1cc(C(=O)Nc2ccc(-c3nc4cc(C)ccc4o3)c(O)c2)cc(OC)c1OC,,"inconclusive: 17.8 µM [inhibitor, partial curve]"
CC(NC(=O)c1cccs1)c1n[nH]c(=S)n1C (stereo unspecified),inactive: 12.6%,
CC(=O)c1ccc(NC(=S)Nc2cccc(S(=O)(=O)Nc3c(C)n(C)n(-c4ccccc4)c3=O)c2)cc1,inactive: -3.49%,
COc1ccc(-c2cc(=O)c3ccccc3[nH]2)cc1,,"inconclusive: 25.1 µM [inhibitor, partial curve]"
C=CCn1c(SCC(=O)c2cccs2)nnc1-c1cccc(OC)c1,inactive: 1.05%,
O=C(CN(Cc1ccccc1Cl)C(=O)c1ccc(CN2CCOCC2)o1)NCc1ccccc1,inactive: -4.16%,
O=C(NCc1ccco1)c1sc2cccc(F)c2c1Cl,,"inconclusive: 35.5 µM [inhibitor, single point]"
Cc1cc2cc(C#N)c(N3CCN(S(C)(=O)=O)CC3)nc2cc1C,,"inconclusive: 28.2 µM [inhibitor, partial curve]"
CCn1c(=O)c(C(=O)CN(C)Cc2cccc(OC)c2OC)c(N)n(Cc2ccccc2)c1=O,,"inconclusive: 31.6 µM [inhibitor, single point]"
Cc1onc(-c2ccccc2)c1C(=O)N1CCN(S(=O)(=O)c2ccc3c(c2)OCCO3)CC1,inactive: 0.259%,
COC(=O)c1c(-c2ccc3ccccc3c2)csc1NC(=O)Cc1ccc(OC)c(OC)c1,,"inconclusive: 39.8 µM [inhibitor, single point]"
CC(C)(C)C(=O)NC(=S)Nc1ccccc1C(=O)Nc1ccccc1,inactive: -7.52%,
O=C(CN(c1ccccn1)S(=O)(=O)c1ccccc1)Nc1ccccc1,,"inconclusive: 31.6 µM [inhibitor, single point]"
O=C(Oc1ccc(-c2ccccc2)cc1)N1CCOCC1,,"inconclusive: 39.8 µM [inhibitor, single point]"
Cc1cc(=O)n2c(nc3ccccc32)[nH]1,,"inconclusive: 31.6 µM [inhibitor, partial curve]"
CCN(CC)C(=O)Cn1cc(C(=O)C(=O)N2CC=C(c3ccccc3)CC2)c2ccccc21,inactive: 0.878%,
O=C(Nc1ccc(NC(=O)c2cc([N+](=O)[O-])ccc2N2CCOCC2)cc1)c1cccs1,inactive: -0.602%,
